Laboratory results reported in the antibiotic and cytotoxicity screens of Wong et al. (2023).
This is one part of the list.

Tests used:
[1] = test system: HSkMC (human skeletal muscle cells); assay: cytotoxicity call (relative viability < 0.9); details: 10 µM
[2] = test system: HepG2; assay: cytotoxicity call (relative viability < 0.9); details: 10 µM
[3] = test system: S. aureus RN4220; assay: growth inhibition call (relative growth <= 0.2); details: 50 µM

C[C@@H]1CCCCO[C@H](CN(C)C(=O)Nc2ccccc2)[C@H](C)CN([C@@H](C)CO)C(=O)c2cc(NC(=O)C3CCCCC3)ccc2O1
cytotoxicity call [1]: inactive
cytotoxicity call [2]: inactive
growth inhibition call [3]: inactive

Cc1noc(C)c1S(=O)(=O)Nc1ccc2c(c1)C(=O)N([C@H](C)CO)C[C@@H](C)[C@@H](CN(C)Cc1ccc(C(F)(F)F)cc1)OCCCC[C@H](C)O2
cytotoxicity call [1]: inactive
cytotoxicity call [2]: active
growth inhibition call [3]: inactive

O=c1ccn([C@@H]2O[C@H](COP(=O)(O)OP(=O)(O)OP(=O)(O)O)[C@@H](O)[C@H]2O)c(=O)[nH]1
cytotoxicity call [1]: inactive
cytotoxicity call [2]: inactive
growth inhibition call [3]: inactive

C=CC1=C(C(=O)O)N2C(=O)[C@@H](NC(=O)/C(=N\O)c3csc(N)n3)[C@H]2SC1
cytotoxicity call [1]: inactive
cytotoxicity call [2]: inactive
growth inhibition call [3]: active

C[C@@H]1CN([C@@H](C)CO)C(=O)c2cc(NC(=O)c3ccccc3)ccc2O[C@@H](C)CCCCO[C@H]1CN(C)Cc1ccc2c(c1)OCO2
cytotoxicity call [1]: inactive
cytotoxicity call [2]: inactive
growth inhibition call [3]: inactive

COc1ccc(S(=O)(=O)Nc2ccc3c(c2)C(=O)N([C@@H](C)CO)C[C@H](C)[C@@H](CN(C)C(=O)NC(C)C)O3)cc1
cytotoxicity call [1]: inactive
cytotoxicity call [2]: inactive
growth inhibition call [3]: inactive

C[C@H]1CN([C@@H](C)CO)C(=O)c2cccc(NC(=O)Nc3ccc(C(F)(F)F)cc3)c2O[C@@H]1CN(C)S(C)(=O)=O
cytotoxicity call [1]: inactive
cytotoxicity call [2]: inactive
growth inhibition call [3]: inactive

C[C@H]1CCCCO[C@H](CN(C)CC2CC2)[C@@H](C)CN([C@@H](C)CO)C(=O)c2cc(NC(=O)Nc3ccccc3)ccc2O1
cytotoxicity call [1]: inactive
cytotoxicity call [2]: inactive
growth inhibition call [3]: inactive

Cc1nc(-c2ccccc2)cs1
cytotoxicity call [1]: inactive
cytotoxicity call [2]: inactive
growth inhibition call [3]: inactive
